Measurements: the supplement of paper PMC8728848
The list shows a part of the results.

What was measured:
Assay in all cases: glycan array binding signal (z-score within array); higher = stronger binding
Conditions in all cases: glycan notation: IUPAC condensed, linker removed
[1] = target: GlcNAc(b1-4)GlcNAc(b1-4)GlcNAc(b1-4)GlcNAc(b1-4)GlcNAc(b1-4)GlcNAc
Method in brief: (§1)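 Glycan array data were curated from 3228 arrays in the Consortium for Functional Glycomics database and kept only where the protein sequence was available. Glycan names were converted to IUPAC-condensed notation, and columns mapping to the same glycan were averaged. The binding signal is a within-array Z-score, averaged across arrays of the same protein sequence at different concentrations or buffers and across linkers. Negative Z-scores can be read as non-binding.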

[2] = target: GlcNAc(b1-4)[GlcNAc(b1-6)]GalNAc
Method in brief: as §1

[3] = target: GlcNAc(b1-6)Gal(b1-4)GlcNAc
Method in brief: as §1

GlcNAc(b1-6)GalNAc = target: GlcNAc(b1-6)GalNAc
Method in brief: as §1

[4] = target: GlcNAc6S(b1-3)Gal(b1-4)GlcNAc
Method in brief: as §1

Kdn(a2-3)Gal(b1-3)GalNAc = target: Kdn(a2-3)Gal(b1-3)GalNAc
Method in brief: as §1

Kdn(a2-3)Gal(b1-3)GlcNAc = target: Kdn(a2-3)Gal(b1-3)GlcNAc
Method in brief: as §1

Kdn(a2-3)Gal(b1-4)Glc = target: Kdn(a2-3)Gal(b1-4)Glc
Method in brief: as §1

Kdn(a2-3)Gal(b1-4)GlcNAc = target: Kdn(a2-3)Gal(b1-4)GlcNAc
Method in brief: as §1

[5] = target: Kdn(a2-3)Gal(b1-4)[Fuc(a1-3)]GlcNAc
Method in brief: as §1

Kdn(a2-6)Gal(b1-4)GlcNAc = target: Kdn(a2-6)Gal(b1-4)GlcNAc
Method in brief: as §1

[6] = target: Man(a1-2)Man(a1-2)Man(a1-3)Man
Method in brief: as §1

[7] = target: Man(a1-2)Man(a1-2)Man(a1-6)[Man(a1-3)]Man
Method in brief: as §1

Man(a1-2)Man(a1-3)Man = target: Man(a1-2)Man(a1-3)Man
Method in brief: as §1

[8] = target: Man(a1-2)Man(a1-3)[Man(a1-2)Man(a1-6)]Man
Method in brief: as §1

[9] = target: Man(a1-2)Man(a1-3)[Man(a1-2)Man(a1-6)]Man(a1-6)[Man(a1-2)Man(a1-2)Man(a1-3)]Man
Method in brief: as §1

[10] = target: Man(a1-2)Man(a1-3)[Man(a1-2)Man(a1-6)]Man(a1-6)[Man(a1-2)Man(a1-2)Man(a1-3)]Man(b1-4)GlcNAc(b1-4)GlcNAc
Method in brief: as §1

[11] = target: Man(a1-2)Man(a1-3)[Man(a1-6)]Man(a1-6)[Man(a1-2)Man(a1-3)]Man(b1-4)GlcNAc(b1-4)GlcNAc
Method in brief: as §1

[12] = target: Man(a1-2)Man(a1-6)[Man(a1-3)]Man(a1-6)[Man(a1-2)Man(a1-2)Man(a1-3)]Man
Method in brief: as §1

[13] = target: Man(a1-2)Man(a1-6)[Man(a1-3)]Man(a1-6)[Man(a1-2)Man(a1-2)Man(a1-3)]Man(b1-4)GlcNAc(b1-4)GlcNAc
Method in brief: as §1

Man(a1-3)[Man(a1-6)]Man = target: Man(a1-3)[Man(a1-6)]Man
Method in brief: as §1

[14] = target: Man(a1-3)[Man(a1-6)]Man(a1-6)[Man(a1-2)Man(a1-3)]Man(b1-4)GlcNAc(b1-4)GlcNAc
Method in brief: as §1

[15] = target: Man(a1-3)[Man(a1-6)]Man(a1-6)[Man(a1-3)]Man
Method in brief: as §1

[16] = target: Man(a1-3)[Man(a1-6)]Man(a1-6)[Man(a1-3)]Man(b1-4)GlcNAc(b1-4)GlcNAc
Method in brief: as §1

[17] = target: Man(a1-3)[Man(a1-6)]Man(b1-4)GlcNAc(b1-4)GlcNAc
Method in brief: as §1

[18] = target: Man(a1-3)[Man(a1-6)]Man(b1-4)GlcNAc(b1-4)[Fuc(a1-6)]GlcNAc
Method in brief: as §1

Man(a1-6)Man = target: Man(a1-6)Man
Method in brief: as §1

Man(b1-4)GlcNAc = target: Man(b1-4)GlcNAc
Method in brief: as §1

MurNAc(b1-4)GlcNAc = target: MurNAc(b1-4)GlcNAc
Method in brief: as §1

Neu5Ac(a2-3)Gal = target: Neu5Ac(a2-3)Gal
Method in brief: as §1

[19] = target: Neu5Ac(a2-3)Gal(b1-3)GalNAc
Method in brief: as §1

[20] = target: Neu5Ac(a2-3)Gal(b1-3)GalNAc(b1-3)Gal(a1-4)Gal(b1-4)Glc
Method in brief: as §1

[21] = target: Neu5Ac(a2-3)Gal(b1-3)GalNAc(b1-4)[Neu5Ac(a2-3)]Gal(b1-4)Glc
Method in brief: as §1

[22] = target: Neu5Ac(a2-3)Gal(b1-3)GalNAc(b1-4)[Neu5Ac(a2-8)Neu5Ac(a2-3)]Gal(b1-4)Glc
Method in brief: as §1

[23] = target: Neu5Ac(a2-3)Gal(b1-3)GalNAc6S
Method in brief: as §1

[24] = target: Neu5Ac(a2-3)Gal(b1-3)GlcNAc
Method in brief: as §1

[25] = target: Neu5Ac(a2-3)Gal(b1-3)GlcNAc(b1-2)Man
Method in brief: as §1

B1: PX9961T-pdi-555-33-555 (Parabacteroides distasonis) (protein)
chain: FDEETAFQSPTLVYVNTVASLYNNMFKIMGNDRHVYDLNTFSSDEAMLPCRIGDWEDGGLWQNIFLHRWGTMNDLTKNSWDFLYEQIGKCNQSVDKLQAFAEEQPDVEYFKVYLEEVRAVRAFFYYELLDLFARVPLVTSSTTPMSEVKQSERSVVFNFVRSELEEALPYLSDNRSNQKGEYYGRITKPVAYMILAKLALNAEVYADDNWTDGNRPAGKNIKFTVDGKEMNAWEATIAYVDKLEALGYKLQGNFSENFAVANETSVENIFTVPMDPVAYPDAKDYNLVRTRHYDHATAYGQSGWNGSCATVKAMNVFKFGTADEDPRCKLTYFTGEVTGPDGKTIYTEWDGQKVPLKYEPNAPKVYMDASDGLLVKTAGARMAKYEFDQNAQDGGNLHGNDCVIFRFADALLMKAEAKIRLGQNGDDEVNQVRNRVGAKPLQNVTLDTLLDERMLELAWEGVRRQDLIRFGKFTEATVDRYVGVKHFASSLDYQEDKTGYTTVFSIYADILSLNPNLTQNPGY
- glycan array binding signal (z-score) [1]: -0.199
- glycan array binding signal (z-score) [2]: -0.531
- glycan array binding signal (z-score) [3]: -0.304
- glycan array binding signal (z-score) (GlcNAc(b1-6)GalNAc): -0.366
- glycan array binding signal (z-score) [4]: 0.429
- glycan array binding signal (z-score) (Kdn(a2-3)Gal(b1-3)GalNAc): -0.487
- glycan array binding signal (z-score) (Kdn(a2-3)Gal(b1-3)GlcNAc): -0.676
- glycan array binding signal (z-score) (Kdn(a2-3)Gal(b1-4)Glc): -0.602
- glycan array binding signal (z-score) (Kdn(a2-3)Gal(b1-4)GlcNAc): -0.683
- glycan array binding signal (z-score) [5]: 0.001
- glycan array binding signal (z-score) (Kdn(a2-6)Gal(b1-4)GlcNAc): -0.626
- glycan array binding signal (z-score) [6]: -0.417
- glycan array binding signal (z-score) [7]: -0.201
- glycan array binding signal (z-score) (Man(a1-2)Man(a1-3)Man): -0.357
- glycan array binding signal (z-score) [8]: -0.232
- glycan array binding signal (z-score) [9]: 0.268
- glycan array binding signal (z-score) [10]: -0.356
- glycan array binding signal (z-score) [11]: -0.181
- glycan array binding signal (z-score) [12]: -0.681
- glycan array binding signal (z-score) [13]: 0.258
- glycan array binding signal (z-score) (Man(a1-3)[Man(a1-6)]Man): 1.49
- glycan array binding signal (z-score) [14]: -0.453
- glycan array binding signal (z-score) [15]: -0.49
- glycan array binding signal (z-score) [16]: -0.373
- glycan array binding signal (z-score) [17]: 0.087
- glycan array binding signal (z-score) [18]: 0.127
- glycan array binding signal (z-score) (Man(a1-6)Man): 0.167
- glycan array binding signal (z-score) (Man(b1-4)GlcNAc): -0.842
- glycan array binding signal (z-score) (MurNAc(b1-4)GlcNAc): -0.306
- glycan array binding signal (z-score) (Neu5Ac(a2-3)Gal): -0.213
- glycan array binding signal (z-score) [19]: -0.041
- glycan array binding signal (z-score) [20]: -0.742
- glycan array binding signal (z-score) [21]: -0.112
- glycan array binding signal (z-score) [22]: -0.155
- glycan array binding signal (z-score) [23]: -0.237
- glycan array binding signal (z-score) [24]: -0.548
- glycan array binding signal (z-score) [25]: -0.451
